Measured values: PubChem BioAssay AID504937 (National Center for Advancing Translational Sciences (NCATS), 2011)
The whole screen tested about 340,000 compounds, of which about 20 (0.006%) were called active. Inconclusive results, whose numbers are uncertain, are shown with a selection of clear calls. Calls follow the shape of the dose curve; as a rule, active = well fitted inhibition curve with a large enough effect; inconclusive = small, poorly fitted or top-dose-only effect; inactive = no such curve, though single readings can be large or run the other way. Where the call is inconclusive, the potency comes from a doubtful curve fit.

molecular target: Sphingomyelin phosphodiesterase (Homo sapiens) (UniProt P17405); assay: Inhibitors of Secretory Acid Sphingomyelinase (S-ASM): qHTS; details: placental ASM, HMU-PC fluorogenic substrate (series up to 57.5 µM), 60 min
Sequence of UniProt P17405 (P17405 whole entry, looked up): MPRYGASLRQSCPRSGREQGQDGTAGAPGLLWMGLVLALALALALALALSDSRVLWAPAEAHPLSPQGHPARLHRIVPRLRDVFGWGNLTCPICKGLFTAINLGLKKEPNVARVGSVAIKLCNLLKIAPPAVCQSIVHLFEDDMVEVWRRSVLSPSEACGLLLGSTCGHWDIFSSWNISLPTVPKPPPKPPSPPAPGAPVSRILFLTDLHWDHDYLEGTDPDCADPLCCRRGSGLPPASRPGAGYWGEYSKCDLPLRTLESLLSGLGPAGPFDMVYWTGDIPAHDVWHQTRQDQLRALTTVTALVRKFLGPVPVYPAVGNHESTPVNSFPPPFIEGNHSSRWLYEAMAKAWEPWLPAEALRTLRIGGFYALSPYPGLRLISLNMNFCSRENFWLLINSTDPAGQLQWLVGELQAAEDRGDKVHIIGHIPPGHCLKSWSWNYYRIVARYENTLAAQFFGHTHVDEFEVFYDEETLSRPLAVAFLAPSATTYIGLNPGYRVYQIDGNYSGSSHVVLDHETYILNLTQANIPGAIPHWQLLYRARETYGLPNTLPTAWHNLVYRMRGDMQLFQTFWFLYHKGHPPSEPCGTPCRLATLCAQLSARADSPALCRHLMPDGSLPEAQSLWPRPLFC
How it was run: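 HMU-PC0 cleavage (9 uM final) by human placental ASM, 60 min at 37 °C following 10 min compound exposure at RT; stopped at pH 10, fluorescence Ex 386/Em 447 nm.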
Potency is read from the fitted curve at half-maximal effect; tags tell the direction and shape of the fitted curve.

SMILES | Potency
O=C(O)CN1C(=O)N/C(=C\c2cccn2-c2ccc(P(=O)(O)O)cc2)C1=O | inconclusive: 63.1 µM [inhibitor, partial curve, poor fit]
O=C(O)CCCN1C(=O)/C(=C/C=C/c2ccco2)SC1=S | inconclusive: 200 µM [inhibitor, partial curve, poor fit]
COc1ccc(OC)c(C2CC(=O)N3CN(c4ccccc4F)CSC3=C2C#N)c1 (stereo not drawn) | inactive
COc1ccc(OCCn2c(C)c(/C=N/n3cnnc3)c3ccccc32)cc1 | inconclusive: 63.1 µM [inhibitor, partial curve, poor fit]
COc1ccc(NS(=O)(=O)c2cc(NC(=O)C3=NN(c4ccccc4)C(=O)CC3)ccc2C)cc1 | inconclusive: 708 µM [inhibitor, partial curve, poor fit]
O=C1C(Cl)=C(N2CCCCCC2)C(=O)N1c1ccc(Cl)cc1 | inconclusive: 112 µM [inhibitor, partial curve, poor fit]
Cc1cc2nc(NCCCO)n(CC(=O)c3cc(C(C)(C)C)c(O)c(C(C)(C)C)c3)c2cc1C | inconclusive: 70.8 µM [inhibitor, partial curve]
O=C(OCC(=O)N1CCCC1)c1ccc(Cl)c([N+](=O)[O-])c1 | inactive
CCC(COC(=O)c1ccccc1)Oc1cc(NCc2ccccc2)c2ncn(C(C)C)c2c1 (stereo not drawn) | inconclusive: 112 µM [inhibitor, partial curve, poor fit]
COc1ccc2cc3c(N)nn(C(=O)Cc4c[nH]c5ccccc45)c3nc2c1 | inconclusive: 89.1 µM [inhibitor, single point]
CCN(CC)S(=O)(=O)c1ccc2nc(NC(=O)c3cccs3)sc2c1 | inconclusive: 100 µM [inhibitor, single point]
COc1cc(C#Cc2c(-c3cncn3C)n(C)c3ccc(-c4cnc(OC)nc4)cc23)cc(OC)c1 | inconclusive: 251 µM [inhibitor, partial curve, poor fit]
Cc1ccc(CS(=O)(=O)CCC(=O)N2CCOCC2)cc1 | inconclusive: 70.8 µM [inhibitor, single point]
COc1cc2c(cc1NC(=O)c1cc(-c3ccncc3)nc3ccccc13)oc1ccccc12 | inconclusive: 1260 µM [inhibitor, partial curve, poor fit]
O=C(O)c1cccc(-n2cccc2/C=C2/NC(=O)N(c3ccc(Cl)cc3)C2=O)c1 | inactive
CCOC(=O)c1sc(=NC(=O)c2ccc(OC(C)C)cc2)n(C)c1C | inactive
CC1=CC(=NOC(=O)/C=C/c2ccccc2)C=C(C)C1=O | inconclusive: 316 µM [inhibitor, partial curve, poor fit]
COc1ccc(N2C(=O)NC(NS(=O)(=O)c3ccc(NC(C)=O)cc3)(C(F)(F)F)C2=O)cc1 (stereo not drawn) | inactive
O=C(CN1CCN(c2ccccc2O)CC1)Nc1cc(S(=O)(=O)N2CCCC2)ccc1Cl | inactive
O=C(Cn1cnc2ccccc2c1=O)Nc1nc2ccccc2s1 | inactive
CCOC(=O)c1[nH]c2ccccc2c1NC(C)=O | inactive
CC(=O)c1ccc2c(c1)CC1(C2)Cc2cc3c(cc2C1)C(=O)CC3 (stereo not drawn) | inconclusive: 501 µM [inhibitor, partial curve, poor fit]

SMILES | Potency
O=C(CCN1C(=O)/C(=C/c2ccccc2F)SC1=S)N[C@@H](CO)Cc1ccccc1 | inactive
Cc1cc(NNC(=O)c2cccc(C(F)(F)F)c2)nc2c1c(C)nn2C | inactive
O=C(O)c1cccc(NC(=O)c2ccc3c(c2)C(=O)N(c2cccc([N+](=O)[O-])c2)C3=O)c1 | inconclusive: 50.1 µM [inhibitor, single point]
O=c1[nH]c(C2CCN(S(=O)(=O)c3ccccc3C(F)(F)F)CC2)nc2c1nnn2Cc1cccc(F)c1 | inconclusive: 63.1 µM [inhibitor, single point]
Cn1c(-c2cccc(F)c2)nc2c1c(=O)[nH]c(=O)n2Cc1ccccc1 | inactive
COc1ccc(-c2[nH]nc(-c3ccccc3)c2-c2nc3ccccc3[nH]2)cc1 | inconclusive: 200 µM [inhibitor, partial curve, poor fit]
Cc1ccc(NC(=O)CN2C(=O)S/C(=C\c3ccc(-c4cccc(C(=O)O)c4C)o3)C2=O)cc1C | inactive
COC(=O)CSc1nc2ccccn2c(=O)c1C=O | inactive
CC(C)C[C@@H](CN1CCCC1CN1C(=S)NC[C@@H]1Cc1ccc(O)cc1)N1C[C@H](Cc2ccc(O)cc2)N(CC2CCCCCC2)C1=S (stereo partly drawn) | inconclusive: 50.1 µM [inhibitor, partial curve, poor fit]
O=C1/C(=N\S(=O)(=O)c2cccs2)C([n+]2ccccc2)=C([O-])c2ccccc21 | inactive
COCCNC(=S)N/N=C(\C)c1ccc(O)cc1 | inactive
c1ccc(C[n+]2csc3ccccc32)cc1 | inactive
CCOc1ccc(Nc2nc(N3CCCC3)nc(N3CCN(c4ccc(OC)cc4)CC3)n2)cc1 | inconclusive: 158 µM [inhibitor, partial curve, poor fit]
Clc1ccccc1-c1ccc2ncnc(NCc3ccc4c(c3)OCO4)c2c1 | inconclusive: 70.8 µM [inhibitor, single point]
COc1ccc(Cl)cc1S(=O)(=O)N(C)CC(=O)N1CCOCC1 | inactive
CCOC(=O)Cn1nnnc1CN(Cc1ccc(OC)cc1)Cc1cc2cc(CC)ccc2[nH]c1=O | inconclusive: 447 µM [inhibitor, partial curve, poor fit]
C=CCN(CC=C)S(=O)(=O)c1ccc2nc(NC(=O)C3CCCO3)sc2c1 (stereo not drawn) | inactive
CN(C)c1ccc(/C=C2\NC(=S)N(Cc3ccccc3)C2=O)cc1 | inconclusive: 89.1 µM [inhibitor, single point]
O=C(Nc1cccc(-c2nnn(CC(=O)N3CCc4ccccc4C3)n2)c1)C1CCC1 | inactive
O=C(Nc1ccccc1)c1cc([N+](=O)[O-])ccc1NC1CCCCC1 | inconclusive: 79.4 µM [inhibitor, single point]
Cc1ccc(Cn2c(C(CO)Nc3nc(-c4ccc(F)cc4)cs3)nc3ccccc32)cc1 (stereo not drawn) | inconclusive: 79.4 µM [inhibitor, single point]
